Assay results as given in PubChem BioAssay AID1768 (National Center for Advancing Translational Sciences (NCATS), 2009).
Among all 270,000 compounds or so, about 620 (0.23%) were called active. Inconclusive means that the source gave no clear call. Such entries were picked first, then a sample of the others. Calls come from the whole dose curve; as a rule, active = well fitted inhibition curve with a large enough effect in the polarisation, with a control signal flat (not every such curve was filed as active); inconclusive = small, poorly fitted or top-dose-only effect, or effect the other way, or a change in a side signal; inactive = no such curve, though single readings can be large or run the other way; the % refers to the polarisation. Where the call is inconclusive, the potency comes from a doubtful curve fit. “Side channel” marks fits to a control or component signal instead of the main read-out.

Target: Menin (Homo sapiens) (UniProt O00255)
Assay: qHTS Assay for Inhibitors Targeting the Menin-MLL Interaction in MLL Related Leukemias: Competition With Texas Red Labeled MLL-derived Mutant Peptide
Conditions: fluorescence polarization; series mostly up to 61.6 µM
Potency is the fitted concentration of half-maximal effect; tags give direction and shape of the fitted curve or compound fluorescence and quenching.

Sequence of UniProt O00255 (O00255 whole entry, looked up): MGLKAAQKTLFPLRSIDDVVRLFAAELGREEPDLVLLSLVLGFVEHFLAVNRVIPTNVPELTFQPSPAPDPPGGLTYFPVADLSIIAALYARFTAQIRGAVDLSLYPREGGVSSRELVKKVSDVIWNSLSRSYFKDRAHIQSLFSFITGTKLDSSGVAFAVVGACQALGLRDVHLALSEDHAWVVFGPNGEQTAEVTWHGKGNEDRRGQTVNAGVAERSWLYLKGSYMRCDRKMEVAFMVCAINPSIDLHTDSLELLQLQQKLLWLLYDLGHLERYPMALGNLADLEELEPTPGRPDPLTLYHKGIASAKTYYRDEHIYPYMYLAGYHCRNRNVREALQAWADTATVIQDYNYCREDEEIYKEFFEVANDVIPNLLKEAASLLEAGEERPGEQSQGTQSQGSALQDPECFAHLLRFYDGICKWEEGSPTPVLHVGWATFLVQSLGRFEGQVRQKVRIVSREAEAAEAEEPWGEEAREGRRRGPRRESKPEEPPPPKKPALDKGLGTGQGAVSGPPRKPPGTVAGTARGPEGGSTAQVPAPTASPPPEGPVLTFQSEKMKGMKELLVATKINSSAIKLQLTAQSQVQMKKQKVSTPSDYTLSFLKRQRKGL

Potency, inconclusive:
CCOc1ccc(-n2c(=O)c3sccc3n(CC(=O)NCCc3ccc(OC)c(OC)c3)c2=O)cc1 35.5 µM [fluorescent, side channel, single point]
COc1ccc2[nH]c3ccccc3c2c1 25.1 µM [quencher, side channel, single point]
COc1cc(-c2nc3ccc4ccccc4c3c3c2CCC3)cc(OC)c1OC 3.55 µM [inhibitor, partial curve]
CCN(CC)CCNc1ncnc2c1sc1nc(N3CCOCC3)c3c(c12)CC(C)(C)SC3 14.1 µM [fluorescent, side channel, partial curve]
Cc1ccc(NC(=O)CCC(=O)NNC(=O)c2ccccc2Cl)c(C)c1 39.8 µM [fluorescent, side channel, single point]
Cn1c(=O)[nH]c(=O)c2c1nc(NC1CCCCC1)n2Cc1ccccc1 22.4 µM [inhibitor, single point]
CCN(CC)CCOC(=O)C1c2ccccc2Oc2ccccc21 10 µM [fluorescent, side channel, partial curve]
CN(C)c1ccc(CN(CC2CCCO2)C(=O)c2cccs2)cc1 (stereo unspecified) 39.8 µM [inhibitor, partial curve]
CCOc1ccc(N(CC(=O)NCCSc2ccccn2)S(=O)(=O)c2ccc(Cl)cc2)cc1 28.2 µM [fluorescent, partial curve]
CCN(Cc1ccccc1)c1ccc(/C=N/NS(=O)(=O)c2cccc([N+](=O)[O-])c2)cc1 14.1 µM [quencher, side channel, partial curve]
COc1cc(NC(=O)c2cc3sccc3n2C)cc(OC)c1 22.4 µM [quencher, side channel, partial curve]
COC(=O)CCC(=O)NNC(=O)c1ccc(Br)cc1 39.8 µM [inhibitor, single point]
O=C(O)c1ccc(CN2C(=O)c3cccc4c([N+](=O)[O-])ccc(c34)C2=O)cc1 25.1 µM [quencher, side channel, single point]
CCOC(=O)c1ccc2c(c1)C1C=CCC1C(C(=O)OCC)N2 (stereo unspecified) 20 µM [quencher, side channel, partial curve]
COc1ccc(C)cc1N(CC(=O)Nc1ccc2c(c1)OCCO2)S(C)(=O)=O 39.8 µM [inhibitor, single point]
CCNCCC(CCC(C)C)c1ccc2c(c1)OCO2 (stereo unspecified) 31.6 µM [fluorescent, side channel, single point]
O=P(c1ccccc1)(c1ccccc1)c1nc(-c2ccc(Cl)cc2)oc1N1CCOCC1 2.51 µM [inhibitor, full curve]
CCOc1ccccc1NC(=O)N1CCCc2ccccc21 25.1 µM [fluorescent, side channel, partial curve]
CCOC(=O)c1ccc(NC(=O)c2c(NC(=O)CCC(=O)O)sc3c2CCCCC3)cc1 20 µM [quencher, side channel, partial curve]
COCCCN1C(=O)C(=O)/C(=C(/O)c2ccc(S(=O)(=O)N3CCCCC3)cc2)C1c1cccc(OC)c1 (stereo unspecified) 10 µM [quencher, side channel, single point]
C/C(=N\NS(=O)(=O)c1ccc([N+](=O)[O-])cc1)c1cccs1 22.4 µM [quencher, side channel, single point]
CC(=O)Nc1cccc(NC(=O)c2cc3ccccc3o2)c1 35.5 µM [quencher, side channel, single point]
Fc1ccc(COc2cccc(-c3n[nH]c(=S)o3)c2)cc1 20 µM [quencher, side channel, partial curve]
O=C(Nc1cc(C(F)(F)F)ccc1F)C1CCC1 5.01 µM [inhibitor, full curve, poor fit]
Cc1oc2c(C)c3oc(=O)c(CCC(=O)N4C[C@H]5C[C@@H](C4)c4cccc(=O)n4C5)c(C)c3cc2c1C 17.8 µM [fluorescent, side channel, partial curve]
COC(=O)c1ccc(-c2ccc(C3C4C=CCC(C)C4C(=O)N3Cc3ccccc3)c(F)c2)cc1 (stereo unspecified) 2.24 µM [fluorescent, side channel, full curve, poor fit]
O=C(NCCCNC(=O)c1ccccn1)c1ccc(Br)cc1 12.6 µM [quencher, side channel, partial curve]
O=C(Cc1ccccc1)Nc1ccc(Br)c(Cl)c1 15.8 µM [quencher, partial curve]
CCOc1ccc(-c2nnn(CC(=O)Nc3ccccc3OC)n2)cc1OCC 39.8 µM [fluorescent, side channel, single point]
CCOC(=O)Cn1c(=O)oc2cc(S(=O)(=O)Nc3ccc(F)cc3)ccc21 31.6 µM [quencher, side channel, single point]
Cc1ccc(-c2nn(-c3ccccc3)cc2C=O)o1 25.1 µM [quencher, side channel, single point]
COc1ccc(NC(=S)c2ccc3ccccc3n2)cc1 25.1 µM [quencher, side channel, single point]
COc1cc(NC(=O)Cn2nc(C(F)(F)F)c(Br)c2C)cc([N+](=O)[O-])c1 14.1 µM [quencher, side channel, partial curve]
O=C(c1ccc(Cn2cc([N+](=O)[O-])cn2)o1)N1CCCCCC1 0.708 µM [quencher, side channel, full curve]
COc1cc(/C=C2\SC(=Nc3ccccc3)N(CCc3c[nH]c4ccccc34)C2=O)ccc1OC(C)C(=O)O (stereo unspecified) 14.1 µM [quencher, side channel, partial curve]
CCC(CC)COC(=O)C1=C(C)NC(=O)NC1c1ccccc1Br (stereo unspecified) 17.8 µM [fluorescent, side channel, partial curve]
COc1ccc2[nH]cc(CCNc3ncnc4ccc(-c5ccoc5)cc34)c2c1 25.1 µM [quencher, side channel, single point]
O=C1N/C(=N\S(=O)(=O)c2ccccc2)S/C1=C\c1cc([N+](=O)[O-])ccc1O 28.2 µM [quencher, side channel, single point]
O=C(Nc1cccc(NC(=S)NC(=O)c2cccs2)c1)c1ccccc1 17.8 µM [quencher, side channel, single point]
CC1CCC(NC(=O)C2CCC(CNS(=O)(=O)c3ccccc3)CC2)CC1 (stereo unspecified) 14.1 µM [fluorescent, side channel, partial curve]
O=C(Nc1nc2c(ccc3ccccc32)s1)c1cc([N+](=O)[O-])ccc1N1CCOCC1 8.91 µM [quencher, side channel, partial curve]
Cc1c(NC(=O)C(C)N2CC(C)OC(C)C2)c(=O)n(-c2ccccc2)n1C (stereo unspecified) 3.16 µM [inhibitor, partial curve]
CC1CCC(C(C)C)C(OC(=O)Cn2c(-c3ccccc3)[n+](C)c3ccccc32)C1 (stereo unspecified) 10 µM [fluorescent, side channel, full curve]
O=[N+]([O-])c1ccc(/C=N/Nc2nc(NCc3ccccc3)nc(N3CCOCC3)n2)cc1 10 µM [quencher, side channel, partial curve]
CC1=NN(c2ccccc2)C(=O)/C1=C\c1cn(C)c2ccccc12 39.8 µM [inhibitor, single point]
COc1ccc2[nH]c(C)c(CCN(Cc3cccs3)C(=S)Nc3ccc(F)cc3)c2c1 12.6 µM [quencher, side channel, partial curve]
CCCCCCOC1(c2ccccc2)OC(=O)c2ccccc21 (stereo unspecified) 5.62 µM [inhibitor, partial curve]
COC(=O)[C@@H](NCc1cccc(CN[C@H](C(=O)OC)c2ccccc2)c1)c1ccccc1 31.6 µM [inhibitor, single point]
O=C(O)c1ccccc1NS(=O)(=O)c1ccc2c3c(cccc13)C(=O)N2 31.6 µM [quencher, side channel, single point]
CCN(CC)S(=O)(=O)c1cccc(NC(=O)c2ccc(Br)cc2)c1 11.2 µM [quencher, side channel, partial curve]

Potency, inactive:
S=c1[nH]nc(-c2cccc(Br)c2)o1
O/N=C1/CC/C(=N\O)c2nn(-c3ccccc3)nc21
CC(=O)c1c(NC(=O)C(C)C)nc(C)nc1-c1ccccc1
Cc1ccc2c(CN3CCN(CCO)CC3)cc(=O)oc2c1
CCc1nc(N(CC)CC)c2oc3ccccc3c2n1
O=C(Cn1sc2ccccc2c1=O)NC12CC3CC(CC(C3)C1)C2
